Measurements reported in PubChem BioAssay AID686970 (National Center for Advancing Translational Sciences (NCATS), 2013).
The campaign covered roughly 360,000 compounds. About 6,000 (1.7%) were called active. This list was built around the results that the source calls inconclusive (neither active nor inactive); the mix of calls is not that of the screen. The call rests on the fitted dose curve; in most records, active means well fitted cell-killing curve with a large enough effect; inconclusive means small, poorly fitted or top-dose-only effect, or effect the other way; inactive means flat fitted curve, though single readings scatter. No potency is given beside an inconclusive call; the fits are too rough.
Potency means the concentration at half of the fitted maximal effect; tags describe the fitted curve by direction and shape.

Assay: qHTS for induction of synthetic lethality in tumor cells producing 2HG: qHTS for the HT-1080-NT fibrosarcoma cell line;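 further: NT is the 2HG producing partner of a matched IDH1 knockdown line; nearly all actives have a fitted effect of over 55% in size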;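 on activity, negative = less viability: 0% = DMSO-treated cells and -100% = media-only wells without cells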
Details: HT-1080-NT fibrosarcoma viability, CellTiter-Glo ATP luminescence, 48 h; activity, negative = less viability: at 46.1 µM (top of the series) unless noted
Method in brief: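 Viability by CellTiter-Glo luminescence after 48 h compound exposure at 37C of HT-1080-NT cells (750/well, RPMI, 5% FBS). % activity scaled between DMSO wells and medium-only wells, then curve-fitted and categorized by curve class.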
In the case of COC(=O)c1ccc2[nH]c3cccc(/C(=C/c4ccccc4)c4ccccc4)c3c2c1, the Potency is reported as inconclusive [cytotoxic, single point].
With Cc1cccc(N(C)S(=O)(=O)c2ccc(-c3cnc(C4CC4)o3)cc2)c1 the Potency was active: 0.0517 µM.
For CC(C)c1ccc(/C=N/NC(=O)c2cccc(Cl)c2)cc1, the Potency was active: 23.1 µM.
With CCCC(=O)Nc1nc2ccc(S(=O)(=O)N3CCCCC3)cc2s1 the Potency was inconclusive [cytotoxic, partial curve].
For O=C(CSCC(=O)Nc1ccccc1)N/N=C/c1c(O)ccc2ccccc12, the Potency was active: 3.16 µM.
With O=C(NC(=S)N1CCCC1)c1ccccc1Cl the Potency was inconclusive [rising, single point].
In the case of Cc1ccc(-n2ncc(-c3nnc(SCC(=O)NC4CCCC4)o3)c2N)cc1C, the Potency is reported as inconclusive [cytotoxic, single point].
With CCCCNC(=O)C1(C)CCCCN1Cc1ccc(-c2ccccc2)cc1 (configuration not stated) the Potency was inconclusive [cytotoxic, single point].
With CC1CC(Nc2ccccc2)c2ccccc2N1C(=O)c1ccco1 (configuration not stated) the Potency was inconclusive [cytotoxic, partial curve].
With Cc1ccc2nc(-c3ccco3)c(Cc3cccc(F)c3)n2c1 the Potency was inconclusive [cytotoxic, single point].
In the case of Cc1ccc(NNC(=O)c2ccc(Cl)cc2)nn1, the “activity, negative = less viability” value is reported as inactive: 2.9%.
In the case of Cc1cc(C)c(CN2CCC(n3nccc3NC(=O)c3ccccc3Cl)CC2)cc1C, the Potency is reported as inconclusive [cytotoxic, single point].
With CCc1nnc(NC(=O)CN2CCN(c3nc(-c4ccccc4)cs3)CC2)s1 the Potency was inconclusive [cytotoxic, single point].
With Oc1c(I)cc(I)c2cccnc12 the Potency was active: 3.66 µM.
In the case of CCS(=O)(=O)Nc1cccc(-c2cc(-c3ccccc3)c3cc(C)ccc3n2)c1, the Potency is reported as active: 23.1 µM.
In the case of CSc1ccc(CN2CCC(n3nccc3NC(=O)CCCc3ccccc3)CC2)cc1, the Potency is reported as inconclusive [cytotoxic, partial curve].
In the case of O=C(Nc1cccc(Cl)c1)c1ccc2c(=O)n3c(nc2c1)CCCCC3, the Potency is reported as inconclusive [cytotoxic, single point].
For CCC(C)c1ccc(NC(=S)NCc2cccs2)cc1 (configuration not stated), the Potency was inconclusive [cytotoxic, single point].
For N#Cc1c(N)[nH]c2ccc(Sc3ccccc3)cc12, the Potency was active: 3.26 µM.
With COc1ccc(COc2cc(-c3cccc(OC)c3)nc3ccc(NC(=O)c4cccnc4)cc23)cc1 the Potency was inconclusive [cytotoxic, partial curve].
For COc1ccc([N+](=O)[O-])cc1NC(=O)COC(=O)c1ccccn1, the “activity, negative = less viability” value was inactive: 29.3%.
For Cc1oc(-c2ccc(Cl)cc2)nc1CN1CCC(C(=O)NCc2ccco2)CC1, the “activity, negative = less viability” value was inactive: -25.3%.
In the case of CSc1ccc(CN(C)C(=O)c2ccc(S(=O)(=O)Nc3ccccc3)cc2)cc1, the “activity, negative = less viability” value is reported as inactive: 1.04%.
In the case of COC(=O)C1=C(N)Oc2cc(C)[nH]c(=O)c2C1c1cccnc1 (configuration not stated), the “activity, negative = less viability” value is reported as inactive: -1.95%.
With COc1ccccc1NC(=S)NNC(=O)c1c(Cl)c(C)nn1C the Potency was inconclusive [cytotoxic, single point].
With CN(C)CCN(C(=O)/C=C/c1cccs1)c1nc2c(F)cc(F)cc2s1 the Potency was inconclusive [cytotoxic, single point].
With COc1cc2c(cc1OC)C(c1ccccc1)N(C(=O)CSCC(=O)O)CC2 (configuration not stated) the “activity, negative = less viability” value was inactive: 5.31%.
For Cc1cccc(C)c1-n1nnnc1C(c1ccnc2ccccc12)N(C)Cc1ccc(Cl)c(Cl)c1 (configuration not stated), the “activity, negative = less viability” value was inactive: 20.3%.
With COCC(=O)N(Cc1cc2ccc(C)cc2[nH]c1=O)c1ccc(C)cc1C the “activity, negative = less viability” value was inactive: -12.1%.
For O=C1CN(C(=O)c2cc(Br)c(Br)s2)c2ccccc2N1, the Potency was inconclusive [cytotoxic, single point].
For CN(C)CCNc1ncnc2c1ncn2[C@H]1CN(Cc2ccc(F)cc2)C[C@@H](CO)O1, the “activity, negative = less viability” value was inactive: 0.122%.
With O=C(Cn1c(-c2cscn2)nc2ccccc21)Nc1ccc2ccccc2c1 the Potency was inconclusive [cytotoxic, single point].
In the case of O=C(CN(c1ccc(Br)cc1)S(=O)(=O)c1ccc(Cl)c([N+](=O)[O-])c1)NCC1CCCO1 (configuration not stated), the Potency is reported as inconclusive [cytotoxic, single point].
In the case of Cc1cccc(C)c1NC(=O)Cn1nnc(-c2ccc(N3CCOCC3)cc2)n1, the Potency is reported as inconclusive [cytotoxic, single point].
With COc1ccc(-c2c(-c3cc(OC)cc(OC)c3)n(C)c3ccc(-c4cnc(N)nc4)cc23)cc1 the “activity, negative = less viability” value was inactive: 0%.
In the case of O=C(Nc1cc(Cl)cc(Cl)c1)Nc1cnccn1, the “activity, negative = less viability” value is reported as inactive: -3.2%.
In the case of CCCc1cc2c(cc1NC(=O)c1ccc(Br)cc1)OCO2, the Potency is reported as inconclusive [cytotoxic, single point].
In the case of COc1cc(C=C2CCCC(=Cc3ccc(OCC4CO4)c(OC)c3)C2=O)ccc1OCC1CO1 (configuration not stated), the Potency is reported as active: 16.4 µM.
In the case of COc1cccc(/C=N/NC(=O)CNC(=O)c2cccs2)c1O, the Potency is reported as inconclusive [cytotoxic, single point].
With COc1ccc(C2Nc3ccc(NC(=O)CO)cc3C(=O)N2Cc2cccc(Cl)c2)cc1COc1ccc(NC(C)=O)cc1 (configuration not stated) the Potency was inconclusive [cytotoxic, single point].
For COc1cccc(NC(=O)[C@H](Cc2ccccc2)NC(=O)[C@@H]2Cc3ccccc3CN2)c1, the Potency was inconclusive [cytotoxic, single point].
For CCOc1ccc(CC(=O)N/N=C/c2sccc2C)cc1, the “activity, negative = less viability” value was inactive: 17.1%.
In the case of CCOc1cc(CNc2ccc(N(C)C)cc2)cc(Br)c1OCC(=O)NC(C)(C)C, the Potency is reported as inconclusive [cytotoxic, single point].
In the case of COc1ccc(Cl)cc1-c1cc(C(=O)Nc2ccc(C)c(NS(C)(=O)=O)c2)[nH]n1, the Potency is reported as active: 20.6 µM.
In the case of CCCCCCn1c(=O)n2n(c1=O)[C@@H]1CN(S(=O)(=O)c3ccc(C)cc3)C[C@]1(O)[C@@H](OC(=O)NCc1ccccc1)C2, the Potency is reported as inconclusive [cytotoxic, single point].
With CC(C)(C)C(=O)CNS(=O)(=O)c1ccc(S(=O)(=O)NC2CC2)cc1 the “activity, negative = less viability” value was inactive: 0.46%.
With COc1ccc(-c2cccc(-c3cc(=O)oc4cc(OC)cc(OC)c34)c2)cc1 the Potency was inconclusive [cytotoxic, full curve].
With CC1=C/C(=C\c2ccc3c(c2)OCO3)C(=O)S1 the “activity, negative = less viability” value was inactive: 3.92%.
With CCn1nc(C)c(NC(=O)c2cnn3c(C(F)F)cc(-c4ccccc4)nc23)c1C the “activity, negative = less viability” value was inactive: -4.32%.
For Cc1cccc(Nc2nc(-c3ccccc3)c(C(=O)Nc3cccnc3)s2)c1, the Potency was inconclusive [cytotoxic, single point].
In the case of CCNS(=O)(=O)c1ccc(NC(=O)Nc2cc(C)ccc2OC)cc1, the Potency is reported as inconclusive [cytotoxic, single point].
In the case of O=C(Cn1ncc(Cl)c(Cl)c1=O)NC1CCCCC1, the Potency is reported as active: 13 µM.
With CC(=O)N1CCN(C(=O)c2cc(-c3ccc(Cl)s3)nc3ccccc23)CC1 the Potency was inconclusive [cytotoxic, partial curve].
With CCCCCCN1CCN(C2CN(Cc3cn(Cc4ccc(Cl)cc4)nn3)S(=O)(=O)C2)CC1 (configuration not stated) the Potency was inconclusive [cytotoxic, single point].
With Cc1cc2oc(=O)cc(-c3ccccc3)c2c(C)c1-c1ccc(CO)cc1 the “activity, negative = less viability” value was inactive: -0.132%.
With O=C(Nc1ccncc1)c1cc2ccccc2cc1O the Potency was inconclusive [cytotoxic, single point].
With Cc1ccc(-c2nc(NCc3ccco3)n(C(=O)c3ccco3)n2)cc1 the Potency was inconclusive [rising, single point].
In the case of C=CCN1C(=O)C2(NNc3ccccc3O2)c2ccccc21 (configuration not stated), the Potency is reported as inconclusive [cytotoxic, single point].
For CCCCc1c(-c2ccc(Cl)cc2)ncn1CCc1ccccc1OC, the Potency was inconclusive [cytotoxic, single point].
In the case of CCOC(=O)N1CCN(C(C(=O)NC2CCCC2)c2ccco2)CC1 (configuration not stated), the “activity, negative = less viability” value is reported as inactive: -2.03%.
In the case of Clc1ccc(-c2cnc3n2CCC3)cc1, the Potency is reported as active: 35.5 µM.
In the case of Cc1ccccc1OCC(=O)Nc1sc2c(c1C#N)CC(C)(C)NC2(C)C, the Potency is reported as active: 23.1 µM.
For CCOC(=O)c1cn(CC)c2c(ccc3ccccc32)c1=O, the activity, negative = less viability was inconclusive: 23.8%.
In the case of Cc1ccc(S(=O)(=O)N(C)C)cc1NC(=S)N1CCN(Cc2ccc3c(c2)OCO3)CC1, the “activity, negative = less viability” value is reported as inactive: -1.17%.
In the case of CCOC(=O)N1CCN(C(=O)C2CCCN(c3ncnc4c3nc3n4CCCCC3)C2)CC1 (configuration not stated), the “activity, negative = less viability” value is reported as inactive: 5.4%.
For Cc1ccc(S(=O)(=O)c2nc(-c3ccccc3Cl)oc2N(C)C)cc1, the Potency was inconclusive [cytotoxic, single point].
With O=C(Nc1ccc2c(c1)OCCO2)C(c1ccnc2ccccc12)N1CCC(Cc2ccccc2)CC1 (configuration not stated) the “activity, negative = less viability” value was inactive: -16.9%.
For COc1ccc(NC(=O)c2cccc(Oc3ccc([N+](=O)[O-])cc3Cl)c2)cc1, the Potency was inconclusive [cytotoxic, full curve].
With COC(=O)[C@@H]1[C@@H](C)N(Cc2ccccc2)C(=O)N[C@H]1c1cccc(C(F)(F)F)c1 the Potency was inconclusive [cytotoxic, single point].
In the case of CC1(C(=O)Nc2cccc(C(F)(F)F)c2)Cc2c(-c3ccccc3)ccnc2O1 (configuration not stated), the Potency is reported as inconclusive [cytotoxic, single point].
With COc1ccc(CC(=O)Nc2ccc(/C(C)=N/NC(=O)c3cccc([N+](=O)[O-])c3)cc2)cc1 the Potency was inconclusive [cytotoxic, partial curve].
With S=c1[nH]c2cc(Cl)ccc2s1 the Potency was inconclusive [cytotoxic, single point].
